Consider one molecule from patent publication US20240002332A1, “Small Molecule Inhibitors of SARS-CoV-2 Infections” (priority 2020, published 2024).

The subject of this experiment is SARS-CoV-2. The conditions noted are these: 30 mpk BID, 60 mpk BID, 60 mpk SID; days 2 and 4.

Take `O=C(Nc1ccc([N+](=O)[O-])cc1Cl)c1cc(Cl)ccc1OC(=O)N1CCNCC1` [Compound P3, 4-chloro-2-((2-chloro-4-nitrophenyl)carbamoyl)phenyl piperazine-1-carboxylate]: the “subgenomic SARS-CoV-2 RNA in oropharyngeal swabs” value is “dose dependent decrease in the subgenomic RNA was seen and was comparable to the EIDD group”.
